Hit rate of the full screen: of about 220,000 compounds, about 5,700 (2.6%) were called active. The shares of active, inactive and inconclusive entries below differ from those in the screen. Calls follow the shape of the dose curve; as a rule, active = well fitted inhibition curve with a large enough effect; inconclusive = small, poorly fitted or top-dose-only effect; inactive = no such curve, though single readings can be large or run the other way. Potencies of inconclusive entries are doubtful fits and often do not repeat.
These compounds were tested against Lysine-specific demethylase 5B (Homo sapiens) (UniProt Q9UGL1) (assay: Primary screen for KDM5B Histone Demethylases FDH-coupled qHTS). Conditions: FDH-coupled NADH fluorescence (FDH is formaldehyde dehydrogenase); activity change, negative = inhibition: at 57.7 µM (top of the series) unless noted.
Outline: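 Coupled FDH/NAD⁺ fluorescence readout. KDM5BΔAP 200 nM final; compound titration, 10 min RT preincubation; substrate mix 12.5 µM H3K4me3, 25 µM 2-OG, 50 µM Fe(II), 100 µM ascorbate, 0.25 mM NAD⁺, 0.25 U/mL FDH; ΔRFU over 30 min.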
Also: nearly all actives have a fitted effect of over 70% in size.
For activity change, negative = inhibition in this document: 0% is about no effect.
Potency is read from the fitted curve at half-maximal effect; tags tell the direction and shape of the fitted curve.

UniProt Q9UGL1, sequence (Q9UGL1 whole entry, looked up): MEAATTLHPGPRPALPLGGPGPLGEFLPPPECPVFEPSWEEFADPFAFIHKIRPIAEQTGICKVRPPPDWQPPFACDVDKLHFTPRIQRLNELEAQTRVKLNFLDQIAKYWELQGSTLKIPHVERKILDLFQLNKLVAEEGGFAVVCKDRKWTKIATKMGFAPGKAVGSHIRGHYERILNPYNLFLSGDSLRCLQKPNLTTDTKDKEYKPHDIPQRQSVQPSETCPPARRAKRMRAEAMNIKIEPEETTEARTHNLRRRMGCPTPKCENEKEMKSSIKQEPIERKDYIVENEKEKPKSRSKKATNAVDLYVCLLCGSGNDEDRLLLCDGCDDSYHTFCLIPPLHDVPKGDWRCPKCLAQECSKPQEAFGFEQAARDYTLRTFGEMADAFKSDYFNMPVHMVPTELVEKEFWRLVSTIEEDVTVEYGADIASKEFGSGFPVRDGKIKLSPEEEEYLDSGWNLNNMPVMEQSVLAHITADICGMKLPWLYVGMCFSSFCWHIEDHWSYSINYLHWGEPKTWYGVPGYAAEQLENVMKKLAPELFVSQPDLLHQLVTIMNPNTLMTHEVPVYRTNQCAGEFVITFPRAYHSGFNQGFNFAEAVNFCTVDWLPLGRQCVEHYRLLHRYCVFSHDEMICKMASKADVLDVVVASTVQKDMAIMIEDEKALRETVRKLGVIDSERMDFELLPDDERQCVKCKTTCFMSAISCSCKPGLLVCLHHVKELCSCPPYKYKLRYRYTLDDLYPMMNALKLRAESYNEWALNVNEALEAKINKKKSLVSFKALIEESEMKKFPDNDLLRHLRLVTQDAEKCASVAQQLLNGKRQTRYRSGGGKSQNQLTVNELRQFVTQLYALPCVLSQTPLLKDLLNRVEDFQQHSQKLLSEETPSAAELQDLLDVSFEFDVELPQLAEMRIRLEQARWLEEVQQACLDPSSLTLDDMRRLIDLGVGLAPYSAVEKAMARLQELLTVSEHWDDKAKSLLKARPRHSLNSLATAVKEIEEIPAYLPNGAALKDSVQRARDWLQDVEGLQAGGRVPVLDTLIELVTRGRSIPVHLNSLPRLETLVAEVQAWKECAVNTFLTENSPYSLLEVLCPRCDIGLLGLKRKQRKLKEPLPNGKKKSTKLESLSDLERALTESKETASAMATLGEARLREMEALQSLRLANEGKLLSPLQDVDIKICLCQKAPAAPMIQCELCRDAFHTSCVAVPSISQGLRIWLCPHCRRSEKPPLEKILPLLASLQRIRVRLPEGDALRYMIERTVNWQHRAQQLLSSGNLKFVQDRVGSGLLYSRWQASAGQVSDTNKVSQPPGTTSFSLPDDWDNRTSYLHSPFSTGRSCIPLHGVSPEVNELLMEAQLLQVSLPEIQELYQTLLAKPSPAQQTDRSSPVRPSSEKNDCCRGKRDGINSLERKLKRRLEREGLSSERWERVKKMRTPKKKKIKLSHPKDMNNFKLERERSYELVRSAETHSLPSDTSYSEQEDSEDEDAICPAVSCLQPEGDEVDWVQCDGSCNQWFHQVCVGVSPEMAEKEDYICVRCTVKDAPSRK

Compound | Potency | activity change, negative = inhibition
COc1ccc2c(C)c(CCC(=O)Nc3cccc(C(C)=O)c3)c(=O)oc2c1C | inconclusive: 20 µM [inhibitor, single point] | 
COc1ccc(-n2cnc3c2NC(=O)CC3c2cccnc2)cc1 (stereo unspecified) | inconclusive: 12.6 µM [inhibitor, partial curve, poor fit] | 
Clc1cc(NCCOc2ccccc2)n2nccc2n1 |  | inactive: -21.4% [at 86.2 µM]
CCOC(=O)c1cc(-c2ccccc2)n(-c2cccc(C(=O)Nc3cccc(C)c3)c2)c1C | inconclusive: 28.2 µM [inhibitor, partial curve, poor fit] | 
CCOc1ccccc1NC(=O)CSc1nc2c([nH]c3ccccc32)c(=O)n1-c1ccccc1 | inconclusive: 39.8 µM [inhibitor, single point] | 
O=C(CC1NCCNC1=O)Nc1ccccc1F (stereo unspecified) |  | inconclusive: -33.7% [inhibitor]
COc1ccc(-c2cc(C(=O)Nc3ccc(C(N)=O)cc3)c3ccccc3n2)cc1 | inconclusive: 28.2 µM [inhibitor, partial curve, poor fit] | 
O=C1OC(C(=O)Nc2cccc3ncccc23)Cc2ccccc21 (stereo unspecified) |  | inactive: -0.89%
COc1ccccc1OCc1nc(C#N)c(N2CCN(C)CC2)o1 |  | inactive: 26.1%
CCCCc1ccc(-c2cc(C(=O)NC3CCCC3)c3cc(Br)ccc3n2)cc1 | inconclusive: 28.2 µM [inhibitor, partial curve, poor fit] | 
O=C(NC1CCCCCC1)c1cccc(Oc2ccccc2)c1 |  | inactive: 8.04%
O=C(c1cc2ccccc2[nH]1)N(Cc1ccc(F)cc1)C1CC1 |  | inactive: 9.83%
COc1ccccc1-c1cnc2n[nH]c(-c3sccc3C)c2n1 | inconclusive: 56.2 µM [inhibitor, single point] | 
Cc1cc2cc(NS(=O)(=O)c3c(C)cccc3[N+](=O)[O-])ccc2[nH]1 |  | inactive: 15.2%
O=c1cc(-c2ccccn2)oc2c(-c3cn[nH]c3)nccc12 | inconclusive: 31.6 µM [inhibitor, single point] | 
Cc1nc(C2CC(NC(=O)c3cnc(N)nc3C(F)(F)F)C2)cc(=O)[nH]1 (stereo unspecified) | active: 28.2 µM | 
COCCN1CC(CO)C2(CCN(C(=O)COc3cccc(C)c3)CC2)C1 (stereo unspecified) | inconclusive: 11.2 µM [inhibitor, partial curve, poor fit] | 
COCCC1CCCCN1Cc1cn(-c2ccccc2)nc1-c1ccc2c(c1)OCO2 (stereo unspecified) | inconclusive: 39.8 µM [inhibitor, partial curve, poor fit] | 
Cc1noc(-c2cccn3c(CNC(=O)c4cccc(F)c4)nnc23)n1 | inconclusive: 22.4 µM [inhibitor, partial curve, poor fit] | 
CCC1(C(=O)NCCCN2CCc3ccccc3C2)CCCCC(=O)N1 (stereo unspecified) | inconclusive: 31.6 µM [inhibitor, partial curve] | 
Cc1ccc(NC(=O)O[C@@H]2CC[C@]3(C)C(CC[C@@H](O)[C@H]3CC(=O)N3CCC[C@H]3CO)[C@]2(C)CO)cc1 (stereo partly specified) |  | inactive: -8.78%
O=C(c1nc(-c2ccc(Cl)nc2)c2ccccn12)N1CCOCC1 | active: 14.1 µM | 

Compound | Potency | activity change, negative = inhibition
Cn1c([C@H]2CCN(Cc3ccccc3)C2)nc2ccccc21 | inconclusive: 39.8 µM [inhibitor, partial curve, poor fit] | 
Cc1cn2nc(C(=O)N3CCC(NC(=O)c4c(F)cccc4F)CC3)cc2c(=O)[nH]1 | inconclusive: 15.8 µM [inhibitor, partial curve] | 
CCOc1cccn2c(=O)c(-c3cc(C)n(-c4ccc(Cl)cc4)n3)c(C)nc12 | inconclusive: 28.2 µM [inhibitor, partial curve, poor fit] | 
COc1ccc(CNC(=O)CC[C@@H]2CNC(=O)[C@@H]3C[C@H](NCc4ccccn4)CN23)cc1 | inconclusive: 8.91 µM [inhibitor, partial curve, poor fit] | 
COCC1CCN(C(=O)C2CCC(=O)N(C3CCCCCC3)C2)CC1 (stereo unspecified) |  | inactive: 31%
CCOc1ccc(Cn2c(CNS(=O)(=O)c3c(C)cc(C)cc3C)nc3cccnc32)cc1 | inconclusive: 22.4 µM [inhibitor, single point] | 
O=c1c(C(F)(F)F)nc2ccccc2n1CC(O)COCc1ccccc1 (stereo unspecified) | inconclusive: 39.8 µM [inhibitor, single point] | 
N#Cc1ccccc1CNc1ccc(Cl)cc1F |  | inactive: 16.1%
CCN1CCN(c2nnc(-n3cccc3C(=O)Nc3cccc(OC)c3)s2)CC1 | inconclusive: 25.1 µM [inhibitor, partial curve, poor fit] | 
CCOC(=O)c1sc(Nc2ccccc2)nc1C(F)(F)F | inconclusive: 35.5 µM [inhibitor, partial curve, poor fit] | 
CCCCc1oc2c(c(=O)c1CC)C(=O)CC(C)(C)C2 |  | inactive: 35.7%
CC1=C[C@@H](CNc2ccccn2)[C@H](C(C)C)C[C@H]1Cc1nnc(-c2cncn2C)o1 | active: 35.5 µM | 
O=C(Cn1ccn(-c2ccc(F)c(F)c2)c(=O)c1=O)c1ccc(F)cc1 | inconclusive: 5.01 µM [inhibitor, partial curve, poor fit] | 
O=C(c1ccc(Cl)cc1Cl)N1CCC(c2nnc3n2C(C(=O)N2CCN(c4ncccn4)CC2)CC3)CC1 (stereo unspecified) | inconclusive: 79.4 µM [inhibitor, partial curve] | 
O=C(N/N=C/c1cccs1)c1ccncc1 | inconclusive: 11.2 µM [inhibitor, partial curve, poor fit] | 
NC(=S)N/N=C/c1ccc2cccc(OCc3ccccc3)c2n1 | inconclusive: 31.6 µM [inhibitor, partial curve, poor fit] | 
COC(=O)COc1ccc2c(c1)oc(=O)c1ccccc12 | inconclusive: 22.4 µM [inhibitor, partial curve, poor fit] | 
CC(Oc1ccccc1)C(=O)NCc1nnc2ccc(-c3ccc(F)cc3)nn12 (stereo unspecified) | inconclusive: 28.2 µM [inhibitor, single point] | 
CCCn1nc(NC(=O)c2ccco2)c2cc3cc(C)ccc3nc21 | inconclusive: 25.1 µM [inhibitor, partial curve, poor fit] | 
CCn1c(COc2cc(C)ccc2Cl)n[nH]c1=S |  | inactive: -19.2%
CC(C)CNC(=O)c1ccc2c(c1)CCCN2C(=O)c1cccc(Cl)c1 |  | inactive: 2.08%
O=C(Nc1cccn2nc(C3CCC3)nc12)c1ccccn1 | inconclusive: 20 µM [inhibitor, partial curve] | 

Compound | Potency | activity change, negative = inhibition
O=C(COc1ccc(F)cc1)N1CCCC1c1nc(C2CCOCC2)no1 (stereo unspecified) | inconclusive: 25.1 µM [inhibitor, single point] | 
Cc1cc(C)cc(NC(=O)c2cnn3c2NC(C(=O)O)=CC3/C=C/c2ccccc2)c1 (stereo unspecified) |  | inactive: -2.35%
CCn1c(=O)c(C(=O)NNS(=O)(=O)c2ccc(NC(=O)OC)cc2)c(O)c2ccccc21 | inconclusive: 39.8 µM [inhibitor, single point] | 
CCC1CCCCN1CCCNC(=O)c1ccc2c(c1)N(Cc1ccc(Cl)cc1)C(=O)c1ccccc1S2(=O)=O (stereo unspecified) | inconclusive: 28.2 µM [inhibitor, partial curve, poor fit] | 
COc1cc(C(=O)Nc2cccc(Cl)c2N2CCCC2)cc(OC)c1OC |  | inactive: -18.3%
CC(=O)c1cn(-c2ccc([N+](=O)[O-])cc2)c(=O)n(C)c1=O | inconclusive: 22.4 µM [inhibitor, partial curve, poor fit] | 
COc1ccc(C)cc1NC(=O)N1CCN(c2cc(-c3noc(C)n3)ccc2C)CC1 | inconclusive: 2.82 µM [inhibitor, full curve, poor fit] | 
O=C(NCCc1ccccc1)Nc1cccc(-c2ccc(N3CCCCC3)nn2)c1 | inconclusive: 25.1 µM [inhibitor, single point] | 
CCOC(=O)Cc1ccc(C(=O)/C=C/c2ccc(Cl)cc2)cc1 |  | inactive: -23.1%
COc1ccc(C)cc1N1CC(C(=O)Nc2ccc(S(=O)(=O)Nc3ncccn3)cc2)CC1=O (stereo unspecified) |  | inactive: 1.03%
O=C(/C=C/c1cccc(F)c1)c1cccc(N2CCOCC2)c1 | inconclusive: 39.8 µM [inhibitor, single point] | 
COc1ccc(NC(=O)c2oc3ccccc3c2NC(=O)Cc2cccs2)cc1 | inconclusive: 50.1 µM [inhibitor, single point] | 
Cc1ccc(NC(=O)c2sc3nc(-c4ccc(F)cc4)ccc3c2N)cc1F | inconclusive: 3.16 µM [inhibitor, full curve, poor fit] | 
CCOc1ccc(-c2cc3c(=O)n(CCNC(=O)c4ccc(C)c(C)c4)ccn3n2)cc1 | active: 17.8 µM | 
c1ccc2c(-c3csc(NC4CCCC4)n3)c[nH]c2c1 |  | inactive: -14.5%
CCc1ccc([S+](=O)([O-])c2nnn3c2nc(NCCCOC)c2ccccc23)cc1 | active: 89.1 µM | 
CCOC(=O)c1ccc(CN(Cc2ccccc2C)S(=O)(=O)c2ccc(F)c(C(=O)Nc3cccc(OC)c3)c2)cc1 | inconclusive: 31.6 µM [inhibitor, single point] | 
COc1cc(/C=C/C(=O)c2sc(C(C)(C)C)nc2C)cc(OC)c1O | inconclusive: 2.82 µM [inhibitor, full curve, poor fit] | 
Cc1cc(C(=O)NC2CCNCC2)c2c(C3CCCN3)noc2n1 (stereo unspecified) | inconclusive: 89.1 µM [inhibitor, partial curve] | 
COc1ccccc1Nc1ncc2c(n1)CN(C(=O)COc1ccccc1)CCN2 | inconclusive: 20 µM [inhibitor, partial curve, poor fit] | 
CCCNc1c(NC(=O)NCCCOCC)c(=O)oc2ccccc12 |  | inactive: 15.7%
Cc1c(C)n(Cc2ccc(F)cc2)c2ccc(C(=O)Nc3ccc(Cl)cc3)cc12 | inconclusive: 35.5 µM [inhibitor, partial curve, poor fit] | 

From PubChem BioAssay AID1347165 (National Center for Advancing Translational Sciences (NCATS), 2019)
